Data taken from the supplement of paper PMC10126150.
Values marked as one replicate rest on one cluster of the flow cell; about a third of the high ones do not repeat.

System: ATP
Assay: switch fluorescence ratio, 500 uM ATP over buffer (Cy3 cluster intensity, sum of 5 cycles each) (fold (ratio)); higher = stronger signal-on switching upon ATP binding; sequences stand for … in TCGTCGGCAGCGTCAGATGTGTATAAGAGACAGTTTTTTTTTTTTTTTTTTTTTTTTT…TC
Details: aptamer strand: ATP DNA aptamer (quencher-CACCTGGGGGAGTATTGCGGAGGAAGG + anchor), 100 nM annealed; ATP concentration: 500 uM; one replicate
Summary of the method: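 Imaging in selection buffer was followed by imaging after 15 min with 500 uM ATP at 22 °C, for Cy3-labelled switching-strand clusters annealed to 100 nM quencher-labelled ATP aptamer on a modified Illumina MiSeq flow-cell. Five of these buffer/ATP cycles ran, separated by NaOH stripping and re-annealing. The fluorescence ratio per cluster is summed target-cycle over summed buffer-cycle Cy3 intensity, averaged per switch-domain sequence; clusters outside 100-1000 RFU were removed.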
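Note: ATP exposure 15 min at 22 °C before imaging.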

Sequence | switch fluorescence ratio
GTGAATTTTT | 0.958
ACAGTTTAG | 0.999
AGTGTTCGAA | 1.03
ATTTAGAGCC | 0.945
TGGAAAAGCC | 0.992
CTGCATCAGG | 1.27
ATGCCCGTAG | 0.994
TGTTACGCCT | 1.01
GGGCAATTAT | 1.02
GACTAACCGG | 1.02
AGACTGCCGG | 0.931
AATCCGAGCT | 1.13
TCGCAGGGG | 1.1
TTTTTCATTG | 1.01
AAGTGGAAAC | 1.01
TAATGGCAGC | 1.04
GAGATTCGTC | 1.03
CGCAGAGGAT | 1.02
GAGCTTGGAG | 1.02
CCGCTAGGGT | 1.09
GCAGTGGACT | 1.02
AGTCTACTGC | 1.1
AGCGGAGGGA | 1.04
GTAGGTCAGC | 0.996
ACCTGTGTCC | 1.15
CGGCCAGGTC | 1.08

Sequence | switch fluorescence ratio
CAGCTTTATG | 1.02
GCTGATAGAA | 1
ACCTCCTTAT | 1.06
CATCTGGAAT | 3.3
AAAGATTTCC | 1.05
TGTGGAGGAC | 0.995
CATTCTTAGC | 1.05
GTTGCTGTAA | 1
ATGGGAGCG | 0.927
GGAGTGTACA | 0.99
GCGGTTCAGG | 1.03
CCAAAGTGAC | 1.97
TGGTGGTGGA | 0.984
GAGTTCAATC | 0.978
AAAATGAAGC | 0.98
AGGGTTGCAC | 1
CTCTATATAT | 1.03
AAGAGGTAA | 0.985
TTGACCTTGA | 1.03
TTTTCGACTC | 1.03
GATGCCGTAA | 1.06
CCAGGGGCCG | 1.03
GGTCGTTTGT | 0.99
TATATGGTGC | 1.07
GTGATGTGTT | 0.997
GTGCTCATTC | 1.04

Sequence | switch fluorescence ratio
ACAATCAAGG | 1.02
GATATGAGA | 1.03
GGGCAATCT | 1.37
AGCAGATACA | 1.19
GGTGGACGCA | 0.992
ATATTCCCCG | 1.34
GCATTACACC | 2.39
GTCAGAACCA | 1.03
GTGTGGCTT | 0.957
GGCCAACCGA | 0.995
CTCTTTATGC | 1.13
CATGTGTCTG | 1.04
TTTTTAACA | 1.04
CGGTCCGCTA | 2.11
TATGAAGGTT | 0.974
CGGGAATCTG | 0.994
TCCTGTCGCG | 1.21
ACGATCATGC | 1.18
CCATAGTACA | 1.11
ATTTCGCTGC | 1.2
GGATGTCTGG | 0.974
TCTAGGTGCT | 1.06
CGCGCTGGGA | 1.01
GAGACGCGAT | 1.73
TGTGATTCGG | 1.04
TGCAGCTTGG | 1.02

Sequence | switch fluorescence ratio
AACTCAACCT | 1.76
GGGTCGTCTC | 0.956
ATATGGGGCG | 1.02
TCTGGCTGCG | 0.989
CTCGGTAAGT | 1.01
GCGGGCGACG | 0.983
ATAGCATCGT | 1.01
TTAGAATGGA | 1.02
GTCACCACCC | 1.1
CAGGATCGCG | 0.956
CAATAAGACC | 1.06
AGGGCACAGG | 1.09
TCGGTTTTTC | 0.975
TTGGGTACTT | 1.21
CAACTGTTTG | 1.02
CTTAGGGAAC | 3.1
CGCTTACAAT | 1.06
GGAGTTAGAC | 1.08
CTAGCCAAAA | 1.02
GACCACATAG | 1.01
AACCGGGACT | 1.1
TGTGTGGCGG | 0.964
ATGTGCAGAA | 0.987
GCTGCTGGTT | 0.994
CAGGTATGGT | 0.992
AAATGCATTT | 1.03

Sequence | switch fluorescence ratio
ATTCGCTATT | 1.01
TTGCCGGAAG | 1.01
GCAATTTTAC | 1.54
GTTTGGTAC | 1.03
TTTCGAAAC | 1.89
CGGTAAATAG | 1.12
TTGCACGCAA | 2.22
AGAGGTGCGT | 0.981
GGCTTAACCG | 1.05
CACGGGTTTT | 1.02
GCCGATGTGC | 1.01
TTCCCGAGAT | 1.5
TCGTCACACC | 1.07
ACATTGTTCG | 1.04
TGTTCATTGG | 1.02
TGAGGTTGCC | 1.06
TAGAGGCAAC | 0.996
GTATAGTGGG | 1.02
TTTGGAATCC | 0.991
CGAGGGTGCC | 1.06
CGGTAGAGTT | 1.03
ACCAACGGTC | 1.09
GAGGCTATTA | 1.04
TTGTTCAGG | 1.03
TACAGCCTAT | 0.992
GGCGATTGCC | 0.964

Sequence | switch fluorescence ratio
CACACATATT | 1.07
GCCCGACACC | 1.07
GCGAGCGGTG | 1.01
CCATGTGTTA | 1
ATGGCATTTA | 1.03
TTATATACGA | 1.05
TTCGCCGGAA | 1.14
CTAGTCAGGG | 1
ATCCAAAGAT | 0.976
AGCTACAAAT | 1
TGGCTCTACC | 1.03
TGCGTATTTG | 0.98
GGGTCTACTG | 1.06
TTAAACATTG | 1
CATAGTGTCC | 1
ACGGTGAACG | 1.03
CAGACTCTTT | 1.02
ACGTTCTCGC | 1.08
CACCTGGTCG | 1.07
TCACCATTA | 1.01
TAGCTGGAGT | 0.98
CCAGCCTGAA | 1
TGACGCGCAC | 3.08
